Assay results from paper PMC9911399, “Two distinct binding modes provide the RNA-binding protein RbFox with extraordinary sequence specificity”.
Substitutions are numbered along the chain they refer to; changes in the protein carry UniProt numbers. The list shows a part of the results.

T1: RBFOX1 RRM RbFoxmut (Fox-RRM*) (Homo sapiens, UniProt Q9NWB1 109-208, R118D;E147R;N151S;E152T)
T1 sequence: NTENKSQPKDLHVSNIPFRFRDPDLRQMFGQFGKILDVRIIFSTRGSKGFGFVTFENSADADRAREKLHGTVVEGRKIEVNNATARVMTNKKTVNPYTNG

B1: GGUGCAC (DNA:RNA)
RNA: GGGAGACCGGAAUUCAGAUUGUCCGGUGCACUUAAAUCCCGUCGUAGCCACCA
DNA 1: CAATCTGAATTCCGGTCTCCC
DNA 2: TGGTGGCTACGACGGGATT
B2: AAUUCCC (DNA:RNA)
RNA: B1 RNA with G25A, G26A, G28U, A30C
DNA 1: CAATCTGAATTCCGGTCTCCC
DNA 2: TGGTGGCTACGACGGGATT
B3: CCAGAUG (DNA:RNA)
RNA: B1 RNA with G25C, G26C, U27A, C29A, A30U, C31G
DNA 1: CAATCTGAATTCCGGTCTCCC
DNA 2: TGGTGGCTACGACGGGATT
B4: AACGUCG (DNA:RNA)
RNA: B1 RNA with G25A, G26A, U27C, C29U, A30C, C31G
DNA 1: CAATCTGAATTCCGGTCTCCC
DNA 2: TGGTGGCTACGACGGGATT
B5: UUUUCCU (DNA:RNA)
RNA: B1 RNA with G25U, G26U, G28U, A30C, C31U
DNA 1: CAATCTGAATTCCGGTCTCCC
DNA 2: TGGTGGCTACGACGGGATT
B6: CGGUGAU (DNA:RNA)
RNA: B1 RNA with G25C, U27G, G28U, C29G, C31U
DNA 1: CAATCTGAATTCCGGTCTCCC
DNA 2: TGGTGGCTACGACGGGATT
B7: GGCUUGG (DNA:RNA)
RNA: B1 RNA with U27C, G28U, C29U, A30G, C31G
DNA 1: CAATCTGAATTCCGGTCTCCC
DNA 2: TGGTGGCTACGACGGGATT
B8: GUACACC (DNA:RNA)
RNA: B1 RNA with G26U, U27A, G28C, C29A, A30C
DNA 1: CAATCTGAATTCCGGTCTCCC
DNA 2: TGGTGGCTACGACGGGATT
B9: GUUACCG (DNA:RNA)
RNA: B1 RNA with G26U, G28A, A30C, C31G
DNA 1: CAATCTGAATTCCGGTCTCCC
DNA 2: TGGTGGCTACGACGGGATT
B10: CAUCAGU (DNA:RNA)
RNA: B1 RNA with G25C, G26A, G28C, C29A, A30G, C31U
DNA 1: CAATCTGAATTCCGGTCTCCC
DNA 2: TGGTGGCTACGACGGGATT
B11: GGAAAAG (DNA:RNA)
RNA: B1 RNA with U27A, G28A, C29A, C31G
DNA 1: CAATCTGAATTCCGGTCTCCC
DNA 2: TGGTGGCTACGACGGGATT
B12: CAGCUUA (DNA:RNA)
RNA: GGGAGACCGGAAUUCAGAUUGUCCCAGCUUAUUAAAUCCCGUCGUAGCCACCA
DNA 1: CAATCTGAATTCCGGTCTCCC
DNA 2: TGGTGGCTACGACGGGATT
B13: CCUUCUC (DNA:RNA)
RNA: B1 RNA with G25C, G26C, G28U, A30U
DNA 1: CAATCTGAATTCCGGTCTCCC
DNA 2: TGGTGGCTACGACGGGATT
B14: CUUGCAG (DNA:RNA)
RNA: B1 RNA with G25C, G26U, C31G
DNA 1: CAATCTGAATTCCGGTCTCCC
DNA 2: TGGTGGCTACGACGGGATT
B15: UUAACAU (DNA:RNA)
RNA: B1 RNA with G25U, G26U, U27A, G28A, C31U
DNA 1: CAATCTGAATTCCGGTCTCCC
DNA 2: TGGTGGCTACGACGGGATT
B16: AGCUAAA (DNA:RNA)
RNA: B1 RNA with G25A, U27C, G28U, C29A, C31A
DNA 1: CAATCTGAATTCCGGTCTCCC
DNA 2: TGGTGGCTACGACGGGATT
B17: UGGAAGA (DNA:RNA)
RNA: B12 RNA with C25U, A26G, C28A, U29A, U30G
DNA 1: CAATCTGAATTCCGGTCTCCC
DNA 2: TGGTGGCTACGACGGGATT
B18: UGUGGUU (DNA:RNA)
RNA: B1 RNA with G25U, C29G, A30U, C31U
DNA 1: CAATCTGAATTCCGGTCTCCC
DNA 2: TGGTGGCTACGACGGGATT
B19: ACAGCCC (DNA:RNA)
RNA: B1 RNA with G25A, G26C, U27A, A30C
DNA 1: CAATCTGAATTCCGGTCTCCC
DNA 2: TGGTGGCTACGACGGGATT
B20: AAGCGUG (DNA:RNA)
RNA: B12 RNA with C25A, U29G, A31G
DNA 1: CAATCTGAATTCCGGTCTCCC
DNA 2: TGGTGGCTACGACGGGATT

molecular target: T1, RBFOX1 RRM RbFoxmut (Fox-RRM*); assay: EMSA; HiTS-Eq, 1 nM pool, 10 min; buffer printed only for the single-RNA assays: 10 mM Tris pH 7.5, 150 mM NaCl, 3.4 mM EDTA, 0.001% NP-40, 30 C; conditions: tags: His6 N-terminal (pET28a); label: 5' 32P
Procedure, shortened: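 Purified RbFox RRM (wild type or mutant) was equilibrated for 10 min in 50 µL with 1 nM of a 5′-radiolabelled pool of RNA with 7 randomized nucleotides, its flanks annealed to DNA oligonucleotides, across increasing protein concentrations. Free RNA was separated by 8% native PAGE, excised, reverse-transcribed, PCR-barcoded and sequenced on an Illumina HiSeq 2500. Relative association constants came from read-count changes of each variant against the control reaction, normalised to the cognate motif.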

| Binder | binding signal |
| --- | --- |
| B1 | 0.0734 KA relative to UGCAUGU |
| B2 | 0.0566 KA relative to UGCAUGU |
| B3 | 0.133 KA relative to UGCAUGU |
| B4 | 0.103 KA relative to UGCAUGU |
| B5 | 0.0613 KA relative to UGCAUGU |
| B6 | 0.085 KA relative to UGCAUGU |
| B7 | 0.226 KA relative to UGCAUGU |
| B8 | 0.0721 KA relative to UGCAUGU |
| B9 | 0.0955 KA relative to UGCAUGU |
| B10 | 0.0808 KA relative to UGCAUGU |
| B11 | 0.069 KA relative to UGCAUGU |
| B12 | 0.124 KA relative to UGCAUGU |
| B13 | 0.0683 KA relative to UGCAUGU |
| B14 | 0.0944 KA relative to UGCAUGU |
| B15 | 0.0882 KA relative to UGCAUGU |
| B16 | 0.121 KA relative to UGCAUGU |
| B17 | 0.0987 KA relative to UGCAUGU |
| B18 | 0.151 KA relative to UGCAUGU |
| B19 | 0.0594 KA relative to UGCAUGU |
| B20 | 0.146 KA relative to UGCAUGU |
